Results as given in publication PMC4336329 (PLoS ONE, 2015).
The campaign covered roughly 310,000 compounds. About 2,200 (0.71%) showed an effect of 50% or more. The effect is printed as a negative number. Some of the results follow.

biological target: human ether-à-go-go-related gene (hERG) potassium channel (human, UniProt Q12809); assay: primary screen, population patch clamp on CHO cells stably expressing hERG
Sequence (Q12809 whole entry, looked up): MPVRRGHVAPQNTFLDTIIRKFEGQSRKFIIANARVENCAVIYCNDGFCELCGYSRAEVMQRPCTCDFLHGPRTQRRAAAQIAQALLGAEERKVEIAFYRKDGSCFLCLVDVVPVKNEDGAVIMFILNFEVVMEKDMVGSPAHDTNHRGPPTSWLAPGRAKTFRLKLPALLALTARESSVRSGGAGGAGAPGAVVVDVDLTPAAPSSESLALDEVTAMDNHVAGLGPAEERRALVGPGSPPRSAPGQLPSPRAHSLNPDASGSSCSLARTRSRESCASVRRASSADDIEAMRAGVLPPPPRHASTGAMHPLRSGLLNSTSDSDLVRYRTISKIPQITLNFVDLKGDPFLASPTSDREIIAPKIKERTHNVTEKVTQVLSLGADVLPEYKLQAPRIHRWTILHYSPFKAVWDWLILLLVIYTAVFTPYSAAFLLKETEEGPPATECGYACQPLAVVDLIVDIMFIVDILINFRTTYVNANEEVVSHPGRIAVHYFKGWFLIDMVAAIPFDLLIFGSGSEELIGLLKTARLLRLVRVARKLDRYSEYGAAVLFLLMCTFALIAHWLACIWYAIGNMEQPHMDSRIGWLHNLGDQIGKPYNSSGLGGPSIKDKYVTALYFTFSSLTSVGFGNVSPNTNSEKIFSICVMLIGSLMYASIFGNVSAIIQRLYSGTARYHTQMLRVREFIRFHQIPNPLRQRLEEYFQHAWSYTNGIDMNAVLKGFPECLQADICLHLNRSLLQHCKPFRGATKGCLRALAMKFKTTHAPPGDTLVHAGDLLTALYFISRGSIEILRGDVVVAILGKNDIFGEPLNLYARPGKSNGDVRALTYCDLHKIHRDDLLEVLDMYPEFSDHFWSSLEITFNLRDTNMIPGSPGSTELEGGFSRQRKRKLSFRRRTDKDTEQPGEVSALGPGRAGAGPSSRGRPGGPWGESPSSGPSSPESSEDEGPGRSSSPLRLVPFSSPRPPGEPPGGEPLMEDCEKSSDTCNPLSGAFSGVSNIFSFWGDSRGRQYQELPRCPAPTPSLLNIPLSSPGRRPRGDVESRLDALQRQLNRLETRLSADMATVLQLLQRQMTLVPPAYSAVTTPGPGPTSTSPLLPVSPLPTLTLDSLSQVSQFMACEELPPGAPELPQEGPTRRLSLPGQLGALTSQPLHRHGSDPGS

SMILES	hERG current change (%, negative = inhibition) at 1uM [%]
C/C(C=O)=C/c1ccccc1	9.01
Cc1c(C)c2ccc(OCC(=O)N[C@@H](Cc3c[nH]c4ccccc34)C(=O)O)cc2oc1=O	7.31
COc1ccc(/C=N/N2CCOCC2)cc1Cn1cc([N+](=O)[O-])cn1	9.4
CC(OC(=O)CCC(=O)c1ccc(F)cc1)C(=O)NC1CCCCC1C (stereo not shown)	12.7
O=C(Cn1c(=O)n(Cc2ccc3c(c2)OCO3)c(=O)c2ccccc21)N1CCCc2ccccc21	9.38
CN(CC(=O)Nc1ccc(Cl)cc1)C(=O)CCNC(=O)c1ccc(Cl)cc1	-14.3
Cc1onc(-c2c(Cl)cccc2Cl)c1C(=O)Nc1nc(C(C)(C)C)cs1	16.1
COc1ccc(COc2cc(-c3cccc(OC)c3)nc3ccc(NC(C)=O)cc23)cc1	6.89
COc1ccc(Cn2c(O)c(C=Nc3ccc(C)cc3)c3ccccc3c2=O)cc1	-7.11
Cc1c(-n2c(=S)[nH]c3ccccc3c2=O)c(=O)n(-c2ccccc2)n1C	12.3
O=C(NCCSCc1ccccc1)c1ccc(Cl)c(S(=O)(=O)N2CCOCC2)c1	-0.515
COc1ccc(C(=O)N/C(=C/c2cccs2)C(=O)NN)cc1OC	14.2
CC(=O)Nc1ccccc1OCc1nnc(-c2cccs2)o1	15.1
CC12CCC(c3nnc(SCc4ccc(Cl)cc4)nc31)C2(C)C (stereo not shown)	7.3
O=C(CN1C(=O)NC(Cc2c[nH]c3ccccc23)C1=O)NCCc1ccccc1 (stereo not shown)	13.1
CCc1noc(C)c1C(=O)Nc1ccc(C#N)cc1	1.59
CN1CCN(C2=Cc3ccc(Cl)cc3Sc3ccc(F)cc32)CC1.CS(=O)(=O)O.O	11.5
COc1ccccc1C1c2[nH]c3ccccc3c2CCN1Cc1ccc(NC(C)=O)s1 (stereo not shown)	5.99
CC(C)Oc1ccccc1NC(=O)CSc1nccn1C	12.8
CC(C)=C1C2CCC1C(C(=O)Nc1cc(C)cc(C)c1)C2C(=O)O (stereo not shown)	14.1
O=c1[nH]c2ccccc2n1Cc1ccc(F)cc1	6.71
CCc1c(C)c2cc(Cl)c(O)c(CN3CCCC3)c2oc1=O	13.2

SMILES	hERG current change (%, negative = inhibition) at 1uM [%]
CCN(C(=O)COC(=O)c1c(-c2ccccc2)noc1C)c1c(N)n(Cc2ccccc2)c(=O)[nH]c1=O	10.7
O=C(Nc1ccccc1)c1ccc2nsnc2c1	-2.07
O=C(C1CC1)N1CCN=C1SCc1ccc(F)cc1	7.65
O=C(COC(=O)c1ccc(S(=O)(=O)NCc2ccco2)cc1)NCc1ccc(F)cc1	1.83
O=C(Nc1nncs1)C1CCCC1	16.7
COc1ccc(/C=C/C(=O)C(C(N)=O)=C2SCCS2)cc1	1.22
COc1ccc(S(=O)(=O)NCCCc2ccccc2)cc1	7.61
COc1ccc(Nc2nccc(OC)c2C#N)cc1	-20.1
COc1cccc(/C=C/c2ccncc2)c1OC.Cl	6.25
Cc1cc(-c2nc3ncccc3o2)ccc1NC(=S)NC(=O)C(C)C	-0.865
O=C(NCCN1CCOCC1)C(=O)NCC1CCCO1 (stereo not shown)	1.85
Cc1cc(NC(=O)CSc2nc(C(C)C)nc3sc(C)c(C)c23)no1	14.1
Cc1cc(C)cc(N=C2NC(=O)/C(=C/c3cccs3)S2)c1	9.05
CCc1ccc2c(c1)c1nnc(NN)nc1n2CC	7.94
Cn1c(C(=O)NC2CCCCCC2)cc2c(=O)n(C)c3ccccc3c21	9.46
COc1cccc(C2=CC(c3cc(OC)ccc3OC)n3nnnc3N2)c1 (stereo not shown)	15.2
Cc1ccc(C(=O)NCCNC(=O)c2ccccn2)cc1	8.75
CCN(CC)c1nc2ccccc2nc1-n1nc(C)cc1C	3.94
CC1Cn2c(nnc2-c2cccc(Cl)c2)S1 (stereo not shown)	5.03
Cc1ccccc1NS(=O)(=O)c1ccc2[nH]c(=O)[nH]c2c1	9.86
Clc1ccc2c(c1)C(c1ccccc1Cl)=NCc1nncn1-2	2.33
Cc1cc(C2=NNC(=NC3CC3)SC2)c(C)n1-c1ccccc1F	5.81

SMILES	hERG current change (%, negative = inhibition) at 1uM [%]
CCOC(=O)C1CCN(C(=O)CCn2c(=O)[nH]c3ccccc3c2=O)CC1	6.43
CCOC(=O)c1ccc2c(c1)n(CC)c(/C=C/Nc1ccccc1)[n+]2CC.[I-]	-86.7
N#Cc1c(SCc2ccc(Cl)cc2)sc(C(=O)c2ccccc2)c1N	15.2
Cc1c(C(=O)NCCC2=CCCCC2)oc2ccc(S(=O)(=O)N3CCOCC3)cc12	-3.51
O=C1/C(=C/c2coc3ccc(O)cc3c2=O)SC(=S)N1c1ccccc1	15.4
CCOC(=O)N1CCN(C(=O)CCC(=O)N2CCOc3ccc(C)cc32)CC1	9.32
COc1ccc(CCNC(=O)/C=C/c2ccco2)cc1OC	5.95
CC(C)n1nccc1N(Cc1ccc(C#N)cc1)S(=O)(=O)c1ccccc1	-5.13
C#CCSc1nc2ccccc2n1C(=O)c1ccc(S(=O)(=O)N2CCCCC2)cc1	6.52
CCOC(=O)c1sc(N)c(C#N)c1CSc1nc2ccc(C)cc2[nH]1	4.05
O=C(c1cnn2c(C(F)(F)F)cc(-c3ccco3)nc12)N1CCCc2ccccc21	-1.81
Cc1cc(N2CCOCC2)nc(-c2ccccc2O)n1	7.78
CC1CCN(C(=O)c2ccc(NS(=O)(=O)c3cccs3)cc2)CC1	15.7
CCOC(=O)c1sc2nc(C)nc(SCC(=O)NC3CCS(=O)(=O)C3)c2c1C (stereo not shown)	6.57
O=C(c1oc(=O)c2ccccc2c1-c1ccccc1)N1CCOCC1	-6.9
O=C(N/N=C/c1ccoc1)c1ccc(Cl)cc1	-14.6
CCC(C)n1c(SCC(=O)NCCc2ccc(S(N)(=O)=O)cc2)nc2ccsc2c1=O (stereo not shown)	8.94
Br.COC(=O)c1ccc(CN2CCSC2=N)cc1	13.5
CCc1nc(SCC(=O)N2CCN(C(=O)c3ccco3)CC2)c2c3c(sc2n1)CCCC3	-22.4
Cc1ccc(NC(=O)COC(=O)C2CC3CCCC(C2)C3=O)c([N+](=O)[O-])c1 (stereo not shown)	9.56
O=C(Nc1ccc(S(=O)(=O)N2CCOCC2)cc1)c1ccc([N+](=O)[O-])o1	9.23
Cc1c(CC(=O)NCCC(=O)O)c(=O)oc2cc3occ(-c4ccccc4)c3cc12	12.1

SMILES	hERG current change (%, negative = inhibition) at 1uM [%]
COc1ccccc1CCNCc1cc2c(cc1[N+](=O)[O-])OCO2	-0.541
O=C(O)/C(=C\c1ccc(F)cc1)c1ccc(-c2ccccc2)cc1	18.3
O=C(NNC(=S)Nc1cccc(C(F)(F)F)c1)c1ccccc1Cl	2.16
CSc1nc2sccc2c(=O)[nH]1	14.9
Cc1ccc(C)c(NC(=O)CN(C)C(=O)C2CCN(S(=O)(=O)c3ccc4c(c3)OCCO4)CC2)c1	5.83
Cc1c(C)c2cc(Cl)c(OCC(=O)N3CCN(c4ccc(F)cc4)CC3)cc2oc1=O	12.9
O=C1c2cccnc2C(Nc2ccccc2Br)N1Cc1ccco1 (stereo not shown)	10.2
Cn1nnc2cc(C(=O)Nc3ccc4ccccc4c3)ccc21	9.96
CC(CN1CCCCC1)OC(=O)CCc1ccccc1.Cl (stereo not shown)	7.8
O=C(NCc1ccco1)C1CCCN1C(=O)NCc1ccccc1 (stereo not shown)	3.67
COc1ccc(C(C(=O)NC2CCCC2)N(Cc2cccnc2)C(=O)c2snc(C(N)=O)c2N)cc1OC (stereo not shown)	13.2
CCc1ccc(NC(=O)COC(=O)c2nc3nc(C)cc(C)n3n2)cc1	1.73
O=C(C[n+]1ccn(CCCNP2(=O)C=C(c3ccccc3)OC(c3ccccc3)=C2)c1)c1cccs1.[Br-]	-25.7
Cc1cccc(C(=O)N2CCc3cc(-c4csc(NC(=O)CN5CCCC5)n4)ccc32)c1	9.02
COc1ccc(-c2cc(C(F)F)n3ncc(C(=O)n4ccnc4C)c3n2)cc1	17.8
COc1ncccc1C(=O)NC1CCCc2c1cnn2-c1ccc(C)c(C)c1 (stereo not shown)	11.8
Cc1cc(C)n2c(SCC#N)nnc2n1	4.09
COc1ccc(NC(C)=O)cc1S(=O)(=O)N1CCN(C/C=C/c2ccccc2)CC1	-48.1
CCC(CC)c1nnc(NC(=O)CCN2C(=O)c3ccccc3C2=O)s1	10.8
COc1ccccc1Nc1nc(N)nc(CSc2ncccn2)n1	-1.02
O=C(c1ccc(Cl)c(S(=O)(=O)N2CCOCC2)c1)N1CCCC1	11.4
Cc1cccc(-n2c(SCC(=O)O)nc3sc4c(c3c2=O)CCCC4)c1	11
